In article PMC6212790:
The other results are listed elsewhere or left out. At the low end of the ranking the order means little.

Molecular target: T1, GST-Rok (full length) (UniProt O34857)
T1 sequence: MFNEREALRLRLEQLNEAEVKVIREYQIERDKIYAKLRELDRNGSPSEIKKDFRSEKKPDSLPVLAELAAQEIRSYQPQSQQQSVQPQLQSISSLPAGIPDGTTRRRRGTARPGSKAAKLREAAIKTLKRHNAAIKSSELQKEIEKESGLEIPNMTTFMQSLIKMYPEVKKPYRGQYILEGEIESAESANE
Assay: protein binding microarray;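 further: rank score from −0.5 (least bound) to 0.5 (best bound)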
Conditions: Rok is a gene silencer of Bacillus subtilis; high values mean tight binding; most listed sequences are background and not binding sites; double strand, one strand shown

| Sequence | binding signal |
| --- | --- |
| GGGGTGAA | -0.178 E-score |
| AAAATGTC | 0.0473 E-score |
| ACACTCTA | -0.12 E-score |
| CCCGCGGC | -0.246 E-score |
| AATGCCAA | -0.0465 E-score |
| AAGTTGCT | 0.216 E-score |
| CAGCAAAC | 0.0159 E-score |
| CCAGGTCA | -0.232 E-score |
| ACTAGGTC | 0.112 E-score |
| GCGTCACA | -0.198 E-score |
| CCGAAATA | -0.0247 E-score |
| AGCAATAC | 0.265 E-score |
| AGCTGAGC | -0.256 E-score |
| ACTAGGAA | 0.221 E-score |
| CTTTCCTA | 0.153 E-score |
| CTCTTGAC | -0.188 E-score |
| CAGAATTC | 0.179 E-score |
| TGTTAAAA | 0.121 E-score |
| GTGTGTGA | -0.145 E-score |
| ATCAATAG | 0.155 E-score |
| GAATCCCC | -0.265 E-score |
| AAGTTCCT | -0.0902 E-score |
| AGAGGCAC | -0.279 E-score |
| CCACGAGC | -0.3 E-score |
| AGTATATG | 0.264 E-score |

| Sequence | binding signal |
| --- | --- |
| ATTAGCGC | 0.16 E-score |
| CGGTATAA | 0.28 E-score |
| CCTATTGA | 0.0435 E-score |
| CTTTCTCA | -0.0968 E-score |
| CGGTGGCC | -0.221 E-score |
| TATGCTGA | 0.103 E-score |
| GATCACAC | 0.0885 E-score |
| AGACTTTA | -0.0247 E-score |
| GGGCTGAC | -0.22 E-score |
| GCGAGGCC | -0.339 E-score |
| AGTTCTTA | -0.0471 E-score |
| CGTCGACC | -0.191 E-score |
| CTTGTAAC | 0.162 E-score |
| AACCTTCA | -0.0882 E-score |
| CCTATAGG | 0.0319 E-score |
| GTCAGTTA | 0.0939 E-score |
| AAAAGAGA | 0.0702 E-score |
| AAACCATC | 0.0623 E-score |
| CGTTCGAC | -0.215 E-score |
| ATCTCCGC | -0.0315 E-score |
| AGCGAGAC | -0.258 E-score |
| GGGTAGAA | 0.359 E-score |
| CACGACGG | -0.254 E-score |
| CACTGATG | -0.157 E-score |
| GTCACGGA | 0.0392 E-score |

| Sequence | binding signal |
| --- | --- |
| GGTAACCA | 0.00448 E-score |
| ACCTAAAC | 0.0418 E-score |
| TATCGCCA | 0.1 E-score |
| CAGTAGGA | 0.219 E-score |
| ACCACTGG | -0.235 E-score |
| CGAAGGCG | -0.159 E-score |
| GTACGGGA | -0.022 E-score |
| ATAGATAC | 0.331 E-score |
| ACGGTGCA | -0.112 E-score |
| TCAGGGAA | -0.125 E-score |
| AGTAAGAA | 0.3 E-score |
| CACGCAGC | -0.243 E-score |
| GAAGTAAA | 0.237 E-score |
| AATGATGA | 0.157 E-score |
| ATCTTCCG | -0.176 E-score |
| AATCTTAC | 0.277 E-score |
| GAGGGTTA | -0.198 E-score |
| AACCATCC | -0.0159 E-score |
| CTATCGAA | 0.272 E-score |
| AGGCCGAT | -0.195 E-score |
| CGCGTCGC | -0.125 E-score |
| GACGTACC | -0.131 E-score |
| CAATGACG | -0.114 E-score |
| ACGTGCGC | -0.106 E-score |
| CTCAGAGA | -0.0684 E-score |

| Sequence | binding signal |
| --- | --- |
| CCCTCATA | -0.0938 E-score |
| CACAGGAA | 0.02 E-score |
| CACGGCTA | -0.119 E-score |
| GCAGTTCC | -0.239 E-score |
| CACCGGCC | -0.254 E-score |
| ATTGGGGC | -0.241 E-score |
| AGCTGGAG | -0.0916 E-score |
| GCTTTCGA | -0.0568 E-score |
| AATCAGCA | 0.0281 E-score |
| AGAAGCAT | 0.208 E-score |
| AGCTTCCG | -0.0308 E-score |
| GCAGTAAA | 0.228 E-score |
| ATTGCTCG | 0.0313 E-score |
| TAGAACCA | 0.082 E-score |
| AATATGCA | 0.304 E-score |
| CCCTAGCC | -0.35 E-score |
| CTGATCAC | -0.0809 E-score |
| GGTGCCAC | -0.126 E-score |
| ATACCATC | 0.198 E-score |
| ACCAAGAA | -0.113 E-score |
| AAAGCATG | 0.00987 E-score |
| ATAATGAT | 0.127 E-score |
| CCAAGTGC | -0.225 E-score |
| CAGTTGGC | -0.144 E-score |
| CGCGAAGC | -0.271 E-score |

| Sequence | binding signal |
| --- | --- |
| ACGATCGC | 0.0708 E-score |
| TACACTGA | 0.111 E-score |
| CTAAGAAG | 0.0468 E-score |
| TCGTATCA | 0.0181 E-score |
| TTGTCAAA | 0.0753 E-score |
| CACGGGCA | -0.202 E-score |
| CCAGATGA | -0.0441 E-score |
| AAGTTTGC | 0.169 E-score |
| GAAATTCA | 0.161 E-score |
| CAGCACGC | -0.204 E-score |
| ATCCTCCC | -0.295 E-score |
| AGCATGCT | 0.0773 E-score |
| ACTAGTAG | 0.426 E-score |
| ATGTACCA | 0.342 E-score |
| GCATGGCC | -0.257 E-score |
| CAACTAAA | 0.249 E-score |
| ATGTGTCG | 0.12 E-score |
| GTGTGCAA | 0.0366 E-score |
| AGTGTATG | 0.257 E-score |
| CAATGAAG | -0.167 E-score |
| GATGCTAC | 0.0568 E-score |
| CCGATGGA | -0.0855 E-score |
| GGATACAC | 0.0361 E-score |
| CGAACAAA | 0.189 E-score |
| AATTTGTC | 0.166 E-score |

| Sequence | binding signal |
| --- | --- |
| GAAGCCTA | -0.058 E-score |
| ATGTTCAC | 0.167 E-score |
| AATGAGAG | -0.0967 E-score |
| CAACGGCG | -0.333 E-score |
| AATTCGTG | 0.0154 E-score |
| TCCCTTCA | -0.245 E-score |
| GGGACCCA | -0.351 E-score |
| CTTCCCCC | -0.39 E-score |
| CCCCGGAA | -0.439 E-score |
| TGGACAAA | -0.0149 E-score |
| GCGAACAA | 0.217 E-score |
| GTTCGGTA | -0.0322 E-score |
| AGAGAGGC | -0.336 E-score |
| ATCACACG | -0.015 E-score |
| AACAGCGT | -0.146 E-score |
| CACGCACG | -0.173 E-score |
| CGGTGAAC | 0.00962 E-score |
| GGGTGTCA | -0.111 E-score |
| CTGTCCAA | -0.0757 E-score |
| GGCACCCA | -0.344 E-score |
| AATAGGAT | 0.2 E-score |
| AGGAGAGC | -0.333 E-score |
| CTCACCGA | 0.0748 E-score |
| ACCCCTCC | -0.459 E-score |
| AGAAAAGC | 0.125 E-score |

| Sequence | binding signal |
| --- | --- |
| CCGTACGC | 0.0343 E-score |
| AGACCTGG | -0.286 E-score |
| CAACTAGA | 0.247 E-score |
| AAAGGATG | 0.0304 E-score |
| ATCGAGAA | 0.183 E-score |
| ACGTGGCG | -0.165 E-score |
| AAGTAGGG | 0.253 E-score |
| ACAACTAG | 0.351 E-score |
| GCAGACAC | 1.16e-05 E-score |
| ACCACCCC | -0.292 E-score |
| CGAGAATC | -0.135 E-score |
| CACCTCTA | -0.0747 E-score |
| AGGACTCA | -0.0424 E-score |
| AGGAAGCA | 0.0205 E-score |
| ACGTCTCC | -0.191 E-score |
| ACAGTGGG | -0.195 E-score |
| GTCGCAAC | -0.0968 E-score |
| ATCATTCA | -0.0469 E-score |
| TTGCACAA | 0.0994 E-score |
| TAGGCCAA | -0.0237 E-score |
| AACGATTC | 0.0523 E-score |
| CCTGCCCC | -0.382 E-score |
